# Measurements reported in publication PMC4336329 (PLoS ONE, 2015).
# About 14,000 (4.5%) of roughly 310,000 compounds showed an effect of 50% or more. The effect is printed as a negative number. This is one part of the list.
# Target: human ether-à-go-go-related gene (hERG) potassium channel (human, UniProt Q12809)
# Test: primary screen, population patch clamp on CHO cells stably expressing hERG
# 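Note: peak tail current of the secondary pulse compared with the same well before compound.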
# Chain of human ether-à-go-go-related gene (hERG) potassium channel (Q12809 whole entry, looked up): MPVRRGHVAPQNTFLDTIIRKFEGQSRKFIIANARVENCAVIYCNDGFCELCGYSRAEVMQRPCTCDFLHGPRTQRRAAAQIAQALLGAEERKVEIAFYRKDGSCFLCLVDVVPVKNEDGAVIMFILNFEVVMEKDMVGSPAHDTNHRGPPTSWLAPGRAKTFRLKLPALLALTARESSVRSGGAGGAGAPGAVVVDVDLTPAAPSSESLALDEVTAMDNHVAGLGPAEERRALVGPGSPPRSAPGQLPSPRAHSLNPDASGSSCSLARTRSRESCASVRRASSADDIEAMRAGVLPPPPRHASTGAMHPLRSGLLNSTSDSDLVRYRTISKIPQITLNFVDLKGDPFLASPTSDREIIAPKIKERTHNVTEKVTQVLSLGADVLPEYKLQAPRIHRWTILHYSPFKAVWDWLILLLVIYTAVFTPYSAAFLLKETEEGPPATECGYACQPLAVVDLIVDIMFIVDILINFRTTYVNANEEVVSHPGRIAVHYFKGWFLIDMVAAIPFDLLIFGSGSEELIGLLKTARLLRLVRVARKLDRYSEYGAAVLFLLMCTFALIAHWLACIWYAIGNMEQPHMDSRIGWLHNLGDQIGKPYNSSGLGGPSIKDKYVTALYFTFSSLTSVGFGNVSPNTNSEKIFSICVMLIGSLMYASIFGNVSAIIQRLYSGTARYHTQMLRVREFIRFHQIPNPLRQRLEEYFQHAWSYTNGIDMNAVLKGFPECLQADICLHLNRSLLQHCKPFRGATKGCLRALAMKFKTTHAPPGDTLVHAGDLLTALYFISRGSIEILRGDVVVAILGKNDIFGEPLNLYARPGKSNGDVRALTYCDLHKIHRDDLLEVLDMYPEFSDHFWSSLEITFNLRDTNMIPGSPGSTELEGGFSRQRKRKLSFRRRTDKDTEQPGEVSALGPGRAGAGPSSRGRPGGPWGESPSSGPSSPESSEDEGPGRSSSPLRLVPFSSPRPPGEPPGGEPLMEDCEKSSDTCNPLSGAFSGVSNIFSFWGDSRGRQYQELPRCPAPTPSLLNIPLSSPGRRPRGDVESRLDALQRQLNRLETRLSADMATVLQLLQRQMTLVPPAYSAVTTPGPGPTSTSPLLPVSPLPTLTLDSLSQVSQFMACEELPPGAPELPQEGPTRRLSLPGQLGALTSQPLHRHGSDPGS
row,SMILES,"hERG current change (%, negative = inhibition) at 10uM"
1,COc1ccc(-n2cnnc2SCCC#N)cc1,6.38%
2,COc1cc(/C=C/C(=O)OCC(=O)c2ccc3c(c2)NC(=O)CO3)ccc1OC(F)F,17.1%
3,Cc1ncoc1C(=O)N1CCCC(N2CCN(c3cccc(C(F)(F)F)c3)CC2)C1 (centres unmarked),-35.7%
4,O=C(NC1=C(Nc2ccc(F)cc2)C(=O)c2ccccc2C1=O)c1ccc(Cl)cc1,-2.98%
5,CC(Cc1cccs1)NC(=O)Nc1ccccc1 (centres unmarked),0.115%
6,CCOC(=O)C1=C(C)N=C2c3ccccc3C(=O)C2C1c1ccccc1 (centres unmarked),3.65%
7,CC(=O)N1CCN(c2ccc(Oc3nnnn3-c3ccccc3)cc2)CC1,-46%
8,O=C(O)c1ccccc1SCC(=O)N1CCCCC1,15.2%
9,COc1cccc(NC(=O)N2CCN(C(=O)C(Cc3ccc(OC)c(OC)c3)NC(C)=O)CC2)c1 (centres unmarked),-1.13%
10,O=C(Nc1ccccn1)c1cccc(S(=O)(=O)N2CCCC2)c1,9.44%
11,O=C(Nc1cccnc1)c1ccc2c(c1)OCO2,6.94%
12,COc1ccc(C2C(C#N)=C(N)OC3=C2C(=O)CC(C)(C)C3)cc1 (centres unmarked),12.8%
13,COc1cc(CC(=O)NCc2ccc3c(c2)OCO3)cc(OC)c1OC,11.2%
14,CCN1CCN(C(=O)C2CCC(=O)N(CCCN3CCCC3=O)C2)CC1 (centres unmarked),19.7%
15,CCOc1ccc(NC(=O)CN(c2ccc(OC)c(OC)c2)S(=O)(=O)c2ccc(C)cc2)cc1,16.2%
16,c1ccc2c(CCNc3ncnc4nc[nH]c34)cccc2c1,-6.53%
17,Cc1ccc2[nH]c(O)c(N=O)c2c1,-0.934%
18,CC(C)Nc1nc(NC(C)C)nc(OCCOC(=O)c2ccccc2)n1,-33.1%
19,CCc1ccc2c(c1)/C(=C/C(=O)c1cccs1)C(=O)N2,2.57%
20,Cc1cc(C(=O)N2CCCC(N3CCN(c4cccc(C(F)(F)F)c4)CC3)C2)c(C)o1 (centres unmarked),-23.2%

row,SMILES,"hERG current change (%, negative = inhibition) at 10uM"
1,O=C(O)CSc1cccc2cccc(C(=O)O)c12,9.64%
2,CCOC(=O)C1CCN(C(=O)c2cc(OCC)c(OCC)c(OCC)c2)CC1,-3.3%
3,COc1cc(NC(=S)NN2CCN(C)CC2)cc(OC)c1,19.9%
4,CC1CCCN(C(=O)c2ccc(NS(=O)(=O)c3ccc4[nH]c(=O)[nH]c4c3)cc2)C1 (centres unmarked),5.66%
5,CN(C(=O)Cn1nc(C(=O)O)c2ccccc2c1=O)c1ccccc1,-10%
6,O=C(CSc1ncn[nH]1)Nc1ccc(Cl)c(S(=O)(=O)N2CCOCC2)c1,12.6%
7,O=C(Nc1ccccc1F)C1CCN(C(=O)NCc2ccccc2)CC1,9.76%
8,CCOc1ccc2ccccc2c1C(=O)Nc1cc(=O)n(C)c(=O)n1C,-8.43%
9,CCCC(=O)Nc1sc2c(c1C(=O)OC)C(C(=O)OC)CC2 (centres unmarked),-0.813%
10,Clc1cccc(-c2ccnc3nc(-n4cccc4)nn23)c1,29.4%
11,COc1ccc(NC(=O)CN2CCC(C(N)=O)(N3CCCCC3)CC2)c(OC)c1,1.56%
12,COc1cc(CN2CCCC(C)C2)ccc1OCc1ccccc1 (centres unmarked),-49.8%
13,O=C(Nc1nc2c(F)c(F)c(F)cc2s1)c1ccco1,20.9%
14,CC(C)CCSc1nc2[nH]ncc2c(=O)[nH]1,-7.22%
15,COc1cccc(/C=N/NC(=O)c2nc(-c3ccccc3)cc(-c3ccccc3)n2)c1O,-9.46%
16,CCCC(=O)N=C1SC2CS(=O)(=O)CC2N1c1ccc(-c2nc3ccc(C)cc3s2)cc1 (centres unmarked),3.62%
17,Cc1ccccc1C(=O)O/N=C(\N)c1ccccc1,9.07%
18,CSCCC(NC(=O)c1ccccc1)C(=O)Nc1ccc(NC(C)=O)cc1 (centres unmarked),-5.4%
19,CCc1ccccc1NC(=O)CNCc1ccccc1.[O-][Cl+3]([O-])([O-])O,6.63%
20,COc1cccc(Nc2c(F)c(F)c(F)c(F)c2C(=O)O)c1,-10.2%

row,SMILES,"hERG current change (%, negative = inhibition) at 10uM"
1,Cc1ccc(CC(=O)Nc2ccc(S(=O)(=O)Nc3ncccn3)cc2)cc1,19.9%
2,COCCNC(=O)C12CC3CC(C1)CC(c1ccccc1)(C3)C2,0.464%
3,O=c1c(Cl)c(NC2CC2)cnn1-c1ccccc1,6.9%
4,CC/C(C)=N/NC(=S)NCc1ccco1,11.9%
5,Cc1sc2ncnc(SCC(=O)N(C(C)C)C(C)C)c2c1C,13.4%
6,Cc1ccc(C(=O)Nc2cccc(C(F)(F)F)c2)cc1NC(=O)c1cnnc2ccccc12,-5.9%
7,COCCNC(=O)CN(C(=O)Cn1nnc2ccccc21)c1cc(C)cc(C)c1,-22.4%
8,COC(=O)C1=C(N)Oc2cc(C)n(CC3CCCO3)c(=O)c2C1c1ccccc1OC (centres unmarked),-7.79%
9,Cc1ccc(O)c(N=Cc2cccs2)c1,1.72%
10,Cc1ccc(NS(=O)(=O)c2ccc(C)c(NC(=O)COc3ccc4ccccc4c3)c2)c(C)c1,20.7%
11,Cc1ccsc1C(=O)C1CCCN(Cc2cc(C(C)C)n[nH]2)C1 (centres unmarked),-43.9%
12,O=C(O)CCN1CCc2ccccc21,9.02%
13,CC1(C)CC(=O)C2=C(C1)NC(=O)CC2c1cc2c(cc1Br)OCO2 (centres unmarked),-14.8%
14,COc1ccc(-c2[nH]ncc2CN(C)C(C)c2ccon2)cc1F (centres unmarked),-15.3%
15,O=C(CSc1ncn[nH]1)NCCc1ccc(Cl)cc1Cl,16.8%
16,S=c1[nH]c2ccc(Cl)cc2[nH]1,9.34%
17,Cc1cc(C)cc(-n2c(C)cc(/C=N/NC(=O)c3ccncc3)c2C)c1,-15.2%
18,O=C(O)[C@H]1NC[C@H]2C[C@H]21,24.2%
19,CC1CN(C(=O)c2ccc(S(=O)(=O)Nc3ccccc3F)cc2)CC(C)O1 (centres unmarked),2.88%
